Results: PubChem BioAssay AID1346428 (National Center for Advancing Translational Sciences (NCATS), 2018)
In all, about 48,000 compounds went through this assay and about 1,200 (2.5%) were called active. Roughly 2% stayed inconclusive and do not appear here.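 The calls were made as follows: active = activation of at least 60% and not above a set upper limit (about 1 call in 100 departs from these limits); inconclusive = activation of 40% to 60%, or above that upper limit; inactive = activation under 40%.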 This is one part of the list.

Target: Probable G-protein coupled receptor 32 (Homo sapiens) (UniProt O75388)
Test: qHTS for Agonists of Human Resolvin D1 Receptor DRV1; also: 0% is about no effect
Details: CHO-K1 GPR32 beta-arrestin PathHunter luminescence, 90 min; at 76.9 µM; active compounds read high; zero percent set by DMSO-only wells
Method in brief: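 Cells are plated overnight, treated with compounds in DMSO for 90 minutes at 37 °C, and developed with PathHunter detection reagent for 1 hour before luminescence is read; signal reflects beta-arrestin binding to GPR32 in engineered CHO-K1 cells.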

Chain of UniProt O75388 (O75388 whole entry, looked up): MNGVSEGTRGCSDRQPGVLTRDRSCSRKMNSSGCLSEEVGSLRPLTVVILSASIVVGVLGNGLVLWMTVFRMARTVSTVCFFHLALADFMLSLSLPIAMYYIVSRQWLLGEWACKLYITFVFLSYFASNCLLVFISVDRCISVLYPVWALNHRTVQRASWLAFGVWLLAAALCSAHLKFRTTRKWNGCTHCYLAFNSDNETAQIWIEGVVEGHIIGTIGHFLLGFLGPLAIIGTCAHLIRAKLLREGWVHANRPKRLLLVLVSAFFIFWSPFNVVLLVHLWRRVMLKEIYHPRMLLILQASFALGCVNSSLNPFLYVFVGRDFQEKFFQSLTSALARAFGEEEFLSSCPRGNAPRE

activation, inactive:
COc1cccc(NC(=O)N2CCN3CCCCC3C2)c1 (centres undefined) -6.69%, CCCOC(=O)CSc1ncnc2sc3c(c12)CCC(C)C3 (centres undefined) -4.39%, COc1ccc(-c2cc(C)no2)cc1S(=O)(=O)NC(C)C -12.6%, Cc1ccc(NC(=O)CSc2ncc3c(n2)-c2ccc(Cl)cc2N(C)S3(=O)=O)cc1F 8.17%, Nc1nc(Cl)nc2c1ncn2[C@@H]1O[C@H](CO)[C@@H](O)[C@@H]1F 4.65%, COc1ccc(-c2noc(CSc3nnc(C)n3-c3ccc(OC)cc3)n2)cc1 3.99%, Cn1nnnc1SCCCNCc1ccccc1OCc1ccccc1Cl 25.4%, COc1ccccc1NC(=O)c1sc2nc(N3CCOCC3)c3c(c2c1N)CC(C)(C)OC3 -7.15%, CC(C)c1ccc(NC(=O)c2ccc(F)c(S(=O)(=O)N3CCCCCC3)c2)cc1 3.29%, COc1ccc(S(=O)(=O)NCCc2csc3nc(-c4ccc(OC)c(OC)c4)nn23)cc1C -15%, CCc1ccccc1NC(=O)C1CCN(S(=O)(=O)c2ccc3[nH]c(=O)ccc3c2)CC1 2.81%, CCCCn1c(=O)c2oc3ccccc3c2n(CC(=O)Nc2cccc(Cl)c2C)c1=O -6.77%, CC(C)(C)c1ccc(C(=O)Nc2cc(-c3nc4ccccc4o3)ccc2Cl)cc1 17.1%, CCc1ccccc1NC(=O)c1ccc2c(c1)CCN2S(C)(=O)=O -24.7%, COc1cc(NC(=O)c2sc3nc4n(c(=O)c3c2C)CCCCC4)cc(OC)c1OC 2.5%, Cc1noc(C)c1S(=O)(=O)N1CCC(C(=O)Nc2ccc(Br)cc2)CC1 5.29%, COc1ccc(CNC(=O)c2nc(Cn3nc(C)c(Br)c3C)no2)cc1OC 42.5%, CCN(C(=O)c1cc2cc3ccc(OC)cc3nc2o1)c1cccc(C)c1 42.3%, COc1ccc(CCNC(=O)C(=O)Nc2ccc(C)cc2)cc1OC 0.549%, COc1ccc(N2CCN(S(=O)(=O)c3c(C)[nH]c(=O)[nH]c3=O)CC2)cc1 3.15%, Cc1ccc(C)c(NC(=O)CSc2nc(-c3ccccc3)cc(=O)[nH]2)c1 -4.82%, COc1ccc(-c2nc(C(=O)Nc3ccc(C(C)=O)cc3)nn2-c2cccc(Cl)c2)cc1 -0.388%, CC(=O)c1ccc(Oc2nc(C)nc3c2oc2ccccc23)cc1 4.08%, Oc1c(C(c2ccc(F)cc2)N2CCOCC2)sc2nc(-c3ccco3)nn12 (centres undefined) 47.3%
